# The supplement of paper PMC8728848
# The list shows a part of the results.
# Experiments:
# Test in all cases: glycan array binding signal (z-score within array); higher = stronger binding
# Settings in all cases: glycan notation: IUPAC condensed, linker removed
# Gal(a1-4)Gal(b1-4)GlcNAc = molecular target: Gal(a1-4)Gal(b1-4)GlcNAc
# Outline: (§1)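 Glycan array binding is given as a within-array Z-score, which can be read as non-binding when negative. The arrays, 3228 of them, came from the Consortium for Functional Glycomics database and were retained only where the protein sequence was available. Z-scores were averaged across arrays of the same protein sequence at different concentrations or buffers and across linkers.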
# [1] = molecular target: Gal(a1-4)Gal(b1-4)GlcNAc(b1-2)Man(a1-3)[Gal(a1-4)Gal(b1-4)GlcNAc(b1-2)Man(a1-6)]Man(b1-4)GlcNAc(b1-4)GlcNAc
# Outline: as §1
# [2] = molecular target: Gal(a1-4)Gal(b1-4)GlcNAc(b1-3)Gal(b1-4)Glc
# Outline: as §1
# Gal(a1-4)GlcNAc = molecular target: Gal(a1-4)GlcNAc
# Outline: as §1
# Gal(a1-6)Glc = molecular target: Gal(a1-6)Glc
# Outline: as §1
# Gal(b1-2)Gal = molecular target: Gal(b1-2)Gal
# Outline: as §1
# Gal(b1-3)Gal = molecular target: Gal(b1-3)Gal
# Outline: as §1
# Gal(b1-3)Gal(b1-4)GlcNAc = molecular target: Gal(b1-3)Gal(b1-4)GlcNAc
# Outline: as §1
# [3] = molecular target: Gal(b1-3)Gal(b1-4)GlcNAc(b1-2)Man(a1-3)[Gal(b1-3)Gal(b1-4)GlcNAc(b1-2)Man(a1-6)]Man(b1-4)GlcNAc(b1-4)GlcNAc
# Outline: as §1
# Gal(b1-3)GalNAc = molecular target: Gal(b1-3)GalNAc
# Outline: as §1
# [4] = molecular target: Gal(b1-3)GalNAc(a1-3)[Fuc(a1-2)]Gal(b1-4)Glc
# Outline: as §1
# [5] = molecular target: Gal(b1-3)GalNAc(a1-3)[Fuc(a1-2)]Gal(b1-4)GlcNAc
# Outline: as §1
# [6] = molecular target: Gal(b1-3)GalNAc(b1-3)Gal(a1-4)Gal(b1-4)Glc
# Outline: as §1
# [7] = molecular target: Gal(b1-3)GalNAc(b1-4)Gal(b1-4)Glc
# Outline: as §1
# [8] = molecular target: Gal(b1-3)GalNAc(b1-4)[Neu5Ac(a2-3)]Gal(b1-4)Glc
# Outline: as §1
# Gal(b1-3)GlcNAc = molecular target: Gal(b1-3)GlcNAc
# Outline: as §1
# [9] = molecular target: Gal(b1-3)GlcNAc(a1-3)Gal(b1-4)GlcNAc
# Outline: as §1
# [10] = molecular target: Gal(b1-3)GlcNAc(a1-6)Gal(b1-4)GlcNAc
# Outline: as §1
# [11] = molecular target: Gal(b1-3)GlcNAc(b1-2)Man(a1-3)[Gal(b1-3)GlcNAc(b1-2)Man(a1-6)]Man(b1-4)GlcNAc(b1-4)GlcNAc
# Outline: as §1
# [12] = molecular target: Gal(b1-3)GlcNAc(b1-2)Man(a1-3)[Gal(b1-3)GlcNAc(b1-2)Man(a1-6)]Man(b1-4)GlcNAc(b1-4)[Fuc(a1-6)]GlcNAc
# Outline: as §1
# [13] = molecular target: Gal(b1-3)GlcNAc(b1-2)Man(a1-3)[GlcNAc(b1-4)][Gal(b1-3)GlcNAc(b1-2)Man(a1-6)]Man(b1-4)GlcNAc(b1-4)GlcNAc
# Outline: as §1
# [14] = molecular target: Gal(b1-3)GlcNAc(b1-2)[Gal(b1-3)GlcNAc(b1-6)]Man(a1-6)[Gal(b1-3)GlcNAc(b1-2)Man(a1-3)]Man(b1-4)GlcNAc(b1-4)GlcNAc
# Outline: as §1
# [15] = molecular target: Gal(b1-3)GlcNAc(b1-3)Gal(b1-3)GlcNAc
# Outline: as §1
# [16] = molecular target: Gal(b1-3)GlcNAc(b1-3)Gal(b1-4)Glc
# Outline: as §1
# [17] = molecular target: Gal(b1-3)GlcNAc(b1-3)Gal(b1-4)GlcNAc
# Outline: as §1
# [18] = molecular target: Gal(b1-3)GlcNAc(b1-3)Gal(b1-4)GlcNAc(b1-6)[Gal(b1-3)GlcNAc(b1-3)]Gal(b1-4)Glc
# Outline: as §1
# [19] = molecular target: Gal(b1-3)GlcNAc(b1-3)Gal(b1-4)[Fuc(a1-3)]GlcNAc(b1-6)[Gal(b1-3)GlcNAc(b1-3)]Gal(b1-4)Glc
# Outline: as §1
# [20] = molecular target: Gal(b1-3)GlcNAc(b1-3)GalNAc
# Outline: as §1
# [21] = molecular target: Gal(b1-3)GlcNAc(b1-6)Gal(b1-4)GlcNAc
# Outline: as §1
# [22] = molecular target: Gal(b1-3)GlcNAc(b1-6)GalNAc
# Outline: as §1
# Gal(b1-3)GlcNAc6S = molecular target: Gal(b1-3)GlcNAc6S
# Outline: as §1
# [23] = molecular target: Gal(b1-3)[Fuc(a1-4)]GlcNAc
# Outline: as §1
# [24] = molecular target: Gal(b1-3)[Fuc(a1-4)]GlcNAc(b1-2)Man(a1-3)[Gal(b1-3)[Fuc(a1-4)]GlcNAc(b1-2)Man(a1-6)]Man(b1-4)GlcNAc(b1-4)[Fuc(a1-6)]GlcNAc
# Outline: as §1
# [25] = molecular target: Gal(b1-3)[Fuc(a1-4)]GlcNAc(b1-3)Gal(b1-3)[Fuc(a1-4)]GlcNAc
# Outline: as §1
# [26] = molecular target: Gal(b1-3)[Fuc(a1-4)]GlcNAc(b1-3)Gal(b1-4)GlcNAc
# Outline: as §1
# [27] = molecular target: Gal(b1-3)[Fuc(a1-4)]GlcNAc(b1-3)Gal(b1-4)[Fuc(a1-3)]GlcNAc
# Outline: as §1
# [28] = molecular target: Gal(b1-3)[Fuc(a1-4)]GlcNAc(b1-6)GalNAc
# Outline: as §1
# [29] = molecular target: Gal(b1-3)[GlcNAc(b1-6)]GalNAc
# Outline: as §1
# [30] = molecular target: Gal(b1-3)[Neu5Ac(a2-6)]GalNAc
# Outline: as §1
# [31] = molecular target: Gal(b1-3)[Neu5Ac(a2-6)]GlcNAc(b1-6)Gal(b1-4)Glc
# Outline: as §1
# [32] = molecular target: Gal(b1-3)[Neu5Ac(b2-6)]GalNAc
# Outline: as §1
# Gal(b1-4)Gal = molecular target: Gal(b1-4)Gal
# Outline: as §1
# [33] = molecular target: Gal(b1-4)GalNAc(a1-3)[Fuc(a1-2)]Gal(b1-4)GlcNAc
# Outline: as §1
# [34] = molecular target: Gal(b1-4)GalNAc(b1-3)[Fuc(a1-2)]Gal(b1-4)GlcNAc
# Outline: as §1
# Gal(b1-4)Glc = molecular target: Gal(b1-4)Glc
# Outline: as §1
binder,measurement,setting,value
"ArathEULS3 (Arabidopsis thaliana), Q945P1 (protein) MEHHHQHHRHHQRDDGEDDRQSFGVPPPHVDAPPQPHGLYQSQPHFDPYAPTPQAPAPYRSETQFEPHAPPPYRSEPYFETPAPPPSFGHVSHVGHQSPNESYPPEHHRYGGYQQPSNSLLESHGDHSGVTHVAHHSSNQPQSSSGVYHKPDENRLPDNLAGLAGRATVKVYSKAEPNYNLTIRDGKVILAPADPSDEAQHWYKDEKYSTKVKDADGHPCFALVNKATGEAMKHSVGATHPVHLIRYVPDKLDESVLWTESKDFGDGYRTIRMVNNTRLNVDAYHGDSKSGGVRDGTTIVLWDWNKGDNQLWKIFPFILEQKLISEEDLNSAVDHHHHHH",glycan array binding signal (z-score),Gal(a1-4)Gal(b1-4)GlcNAc,-0.204
same,glycan array binding signal (z-score),[1],-0.17
same,glycan array binding signal (z-score),[2],-0.369
same,glycan array binding signal (z-score),Gal(a1-4)GlcNAc,-0.252
same,glycan array binding signal (z-score),Gal(a1-6)Glc,-0.342
same,glycan array binding signal (z-score),Gal(b1-2)Gal,-0.206
same,glycan array binding signal (z-score),Gal(b1-3)Gal,-0.272
same,glycan array binding signal (z-score),Gal(b1-3)Gal(b1-4)GlcNAc,-0.32
same,glycan array binding signal (z-score),[3],0.16
same,glycan array binding signal (z-score),Gal(b1-3)GalNAc,-0.25
same,glycan array binding signal (z-score),[4],-0.273
same,glycan array binding signal (z-score),[5],-0.287
same,glycan array binding signal (z-score),[6],-0.321
same,glycan array binding signal (z-score),[7],-0.234
same,glycan array binding signal (z-score),[8],-0.17
same,glycan array binding signal (z-score),Gal(b1-3)GlcNAc,-0.367
same,glycan array binding signal (z-score),[9],-0.076
same,glycan array binding signal (z-score),[10],-0.235
same,glycan array binding signal (z-score),[11],0.023
same,glycan array binding signal (z-score),[12],-0.009
same,glycan array binding signal (z-score),[13],0.478
same,glycan array binding signal (z-score),[14],-0.045
same,glycan array binding signal (z-score),[15],-0.295
same,glycan array binding signal (z-score),[16],0.175
same,glycan array binding signal (z-score),[17],-0.398
same,glycan array binding signal (z-score),[18],0.468
same,glycan array binding signal (z-score),[19],-0.003
same,glycan array binding signal (z-score),[20],-0.179
same,glycan array binding signal (z-score),[21],-0.253
same,glycan array binding signal (z-score),[22],-0.26
same,glycan array binding signal (z-score),Gal(b1-3)GlcNAc6S,1.15
same,glycan array binding signal (z-score),[23],-0.19
same,glycan array binding signal (z-score),[24],-0.262
same,glycan array binding signal (z-score),[25],-0.295
same,glycan array binding signal (z-score),[26],-0.222
same,glycan array binding signal (z-score),[27],-0.244
same,glycan array binding signal (z-score),[28],0.017
same,glycan array binding signal (z-score),[29],-0.212
same,glycan array binding signal (z-score),[30],-0.164
same,glycan array binding signal (z-score),[31],-0.212
same,glycan array binding signal (z-score),[32],-0.163
same,glycan array binding signal (z-score),Gal(b1-4)Gal,1.17
same,glycan array binding signal (z-score),[33],-0.394
same,glycan array binding signal (z-score),[34],-0.274
same,glycan array binding signal (z-score),Gal(b1-4)Glc,-0.098
